Experimental data: the supplement of paper PMC9151546
Repeats are few or missing, and single values can be far off.

What was measured:
[1] = tested on: CHO-K1; assay: micronucleus frequency (% of nucleated events); higher = more micronuclei (genotoxic)
[2] = tested on: CHO-K1; assay: hypodiploid nuclei frequency (% of nucleated events); higher = more hypodiploid events (aneugenic)
[3] = tested on: CHO-K1; assay: relative survival (nuclei to bead ratio vs DMSO control) (% of vehicle control); higher = more surviving cells
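For hypodiploid nuclei frequency (% of nucleated events) in this document: hypodiploid nuclei gated on a flow cytometer with 488 nm excitation after SYTOX Green staining, cultures at 37 °C, positive controls vinblastine without S9 and cyclophosphamide with S9.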
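For micronucleus frequency (% of nucleated events) in this document: cells lysed with nuclei stained by SYTOX Green, then micronucleus-gated events counted against nucleated events by flow cytometry with 488 nm excitation.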
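For relative survival (nuclei to bead ratio vs DMSO control) in this document: Lysed-cell nuclei stained with SYTOX Green and counted against counting beads by flow cytometry at 488 nm excitation, with vinblastine (no S9) and cyclophosphamide (plus S9) as positive controls.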

Cc1ccccc1O [o-Cresol]
Conditions | hypodiploid nuclei frequency, [2] [%] | micronucleus frequency, [1] [%] | relative survival, [3]
concentration: 4.48 (µM), S9 metabolic activation: with S9, exposure time: 3-4 hours | 0.24 | 1.44 | 117
concentration: 4.48 (µM), S9 metabolic activation: without S9, exposure time: 24 hours | 0.58 | 1.92 | 88.5
concentration: 5.6 (µM), S9 metabolic activation: with S9, exposure time: 3-4 hours | 0.16 | 1.34 | 109
concentration: 5.6 (µM), S9 metabolic activation: without S9, exposure time: 24 hours | 0.66 | 1.78 | 92.5
concentration: 7 (µM), S9 metabolic activation: with S9, exposure time: 3-4 hours | 0.38 | 1.62 | 111
concentration: 7 (µM), S9 metabolic activation: without S9, exposure time: 24 hours | 0.58 | 1.62 | 89.4
concentration: 8.75 (µM), S9 metabolic activation: with S9, exposure time: 3-4 hours | 0.24 | 1.1 | 128
concentration: 8.75 (µM), S9 metabolic activation: without S9, exposure time: 24 hours | 0.66 | 1.22 | 104
concentration: 10.9 (µM), S9 metabolic activation: with S9, exposure time: 3-4 hours | 0.24 | 2 | 91.2
concentration: 10.9 (µM), S9 metabolic activation: without S9, exposure time: 24 hours | 0.8 | 2.6 | 87
concentration: 13.7 (µM), S9 metabolic activation: with S9, exposure time: 3-4 hours | 0.34 | 2.08 | 103
concentration: 13.7 (µM), S9 metabolic activation: without S9, exposure time: 24 hours | 0.78 | 1.96 | 80.5
concentration: 17.1 (µM), S9 metabolic activation: with S9, exposure time: 3-4 hours | 0.38 | 2.34 | 95.4
concentration: 17.1 (µM), S9 metabolic activation: without S9, exposure time: 24 hours | 0.74 | 1.94 | 81.3
concentration: 21.4 (µM), S9 metabolic activation: with S9, exposure time: 3-4 hours | 0.4 | 2.04 | 84.7
concentration: 21.4 (µM), S9 metabolic activation: without S9, exposure time: 24 hours | 0.92 | 1.78 | 82.1
concentration: 26.7 (µM), S9 metabolic activation: with S9, exposure time: 3-4 hours | 0.32 | 1.12 | 120
concentration: 26.7 (µM), S9 metabolic activation: without S9, exposure time: 24 hours | 0.54 | 1.32 | 95.8
concentration: 33.4 (µM), S9 metabolic activation: with S9, exposure time: 3-4 hours | 0.28 | 1.18 | 132
concentration: 33.4 (µM), S9 metabolic activation: without S9, exposure time: 24 hours | 0.56 | 1.58 | 90.5
concentration: 41.7 (µM), S9 metabolic activation: with S9, exposure time: 3-4 hours | 0.08 | 1 | 131
concentration: 41.7 (µM), S9 metabolic activation: without S9, exposure time: 24 hours | 0.5 | 1.54 | 87.5
concentration: 52.2 (µM), S9 metabolic activation: with S9, exposure time: 3-4 hours | 0.18 | 1.52 | 119
concentration: 52.2 (µM), S9 metabolic activation: without S9, exposure time: 24 hours | 0.64 | 1.64 | 106
concentration: 65.2 (µM), S9 metabolic activation: with S9, exposure time: 3-4 hours | 0.26 | 1.16 | 97.3
concentration: 65.2 (µM), S9 metabolic activation: without S9, exposure time: 24 hours | 0.6 | 2.06 | 84.3
concentration: 81.5 (µM), S9 metabolic activation: with S9, exposure time: 3-4 hours | 0.24 | 1.36 | 107
concentration: 81.5 (µM), S9 metabolic activation: without S9, exposure time: 24 hours | 0.68 | 1.66 | 85.2
concentration: 102 (µM), S9 metabolic activation: with S9, exposure time: 3-4 hours | 0.3 | 1.26 | 85.6
concentration: 102 (µM), S9 metabolic activation: without S9, exposure time: 24 hours | 0.78 | 2 | 82.6
concentration: 127 (µM), S9 metabolic activation: with S9, exposure time: 3-4 hours | 0.3 | 1.22 | 90.2
concentration: 127 (µM), S9 metabolic activation: without S9, exposure time: 24 hours | 1.06 | 2.56 | 76.3
concentration: 159 (µM), S9 metabolic activation: with S9, exposure time: 3-4 hours | 0.18 | 1.72 | 88.1
concentration: 159 (µM), S9 metabolic activation: without S9, exposure time: 24 hours | 1.48 | 2.46 | 74.2
concentration: 199 (µM), S9 metabolic activation: with S9, exposure time: 3-4 hours | 0.14 | 1.46 | 102
concentration: 199 (µM), S9 metabolic activation: without S9, exposure time: 24 hours | 1.74 | 2.46 | 67.7

Clc1ccc(C(c2ccc(Cl)cc2)C(Cl)Cl)cc1 [p,p'-DDD]
Conditions | hypodiploid nuclei frequency, [2] [%] | micronucleus frequency, [1] [%] | relative survival, [3]
concentration: 4.5 (µM), S9 metabolic activation: with S9, exposure time: 3-4 hours | 0.18 | 1.46 | 134
concentration: 4.5 (µM), S9 metabolic activation: without S9, exposure time: 24 hours | 0.82 | 1.72 | 127
concentration: 5.63 (µM), S9 metabolic activation: with S9, exposure time: 3-4 hours | 0.22 | 1.38 | 125
concentration: 5.63 (µM), S9 metabolic activation: without S9, exposure time: 24 hours | 0.98 | 2.04 | 122
concentration: 7.04 (µM), S9 metabolic activation: with S9, exposure time: 3-4 hours | 0.26 | 1.26 | 107
concentration: 7.04 (µM), S9 metabolic activation: without S9, exposure time: 24 hours | 0.68 | 1.56 | 109
concentration: 8.8 (µM), S9 metabolic activation: with S9, exposure time: 3-4 hours | 0.18 | 1.12 | 134
concentration: 8.8 (µM), S9 metabolic activation: without S9, exposure time: 24 hours | 0.84 | 2.7 | 115
concentration: 11 (µM), S9 metabolic activation: with S9, exposure time: 3-4 hours | 0.24 | 1 | 132
concentration: 11 (µM), S9 metabolic activation: without S9, exposure time: 24 hours | 0.92 | 2.22 | 153
concentration: 13.7 (µM), S9 metabolic activation: with S9, exposure time: 3-4 hours | 0.16 | 1.06 | 151
concentration: 13.7 (µM), S9 metabolic activation: without S9, exposure time: 24 hours | 0.92 | 2.44 | 105
concentration: 17.2 (µM), S9 metabolic activation: with S9, exposure time: 3-4 hours | 0.14 | 1.38 | 189
concentration: 17.2 (µM), S9 metabolic activation: without S9, exposure time: 24 hours | 0.9 | 2.28 | 97.4
concentration: 21.5 (µM), S9 metabolic activation: with S9, exposure time: 3-4 hours | 0.22 | 0.72 | 145
concentration: 21.5 (µM), S9 metabolic activation: without S9, exposure time: 24 hours | 0.8 | 2.64 | 121
concentration: 26.8 (µM), S9 metabolic activation: with S9, exposure time: 3-4 hours | 0.18 | 1.32 | 113
concentration: 26.8 (µM), S9 metabolic activation: without S9, exposure time: 24 hours | 0.9 | 2.18 | 119
concentration: 33.6 (µM), S9 metabolic activation: with S9, exposure time: 3-4 hours | 0.3 | 1.68 | 99.9
concentration: 33.6 (µM), S9 metabolic activation: without S9, exposure time: 24 hours | 0.7 | 2.28 | 130
concentration: 41.9 (µM), S9 metabolic activation: with S9, exposure time: 3-4 hours | 0.2 | 0.9 | 129
concentration: 41.9 (µM), S9 metabolic activation: without S9, exposure time: 24 hours | 0.94 | 2.04 | 116
concentration: 52.4 (µM), S9 metabolic activation: with S9, exposure time: 3-4 hours | 0.12 | 1.12 | 110
concentration: 52.4 (µM), S9 metabolic activation: without S9, exposure time: 24 hours | 0.78 | 2 | 110
concentration: 65.5 (µM), S9 metabolic activation: with S9, exposure time: 3-4 hours | 0.12 | 1.18 | 94.5
concentration: 65.5 (µM), S9 metabolic activation: without S9, exposure time: 24 hours | 0.82 | 2.36 | 85.5
concentration: 81.9 (µM), S9 metabolic activation: with S9, exposure time: 3-4 hours | 0.2 | 1.02 | 113
concentration: 81.9 (µM), S9 metabolic activation: without S9, exposure time: 24 hours | 0.96 | 1.78 | 96
concentration: 102 (µM), S9 metabolic activation: with S9, exposure time: 3-4 hours | 0.08 | 1.3 | 101
concentration: 102 (µM), S9 metabolic activation: without S9, exposure time: 24 hours | 0.64 | 2.78 | 102
concentration: 128 (µM), S9 metabolic activation: with S9, exposure time: 3-4 hours | 0.18 | 1.3 | 104
concentration: 128 (µM), S9 metabolic activation: without S9, exposure time: 24 hours | 0.8 | 2.6 | 73.6
concentration: 160 (µM), S9 metabolic activation: with S9, exposure time: 3-4 hours | 0.36 | 1.74 | 84.9
concentration: 160 (µM), S9 metabolic activation: without S9, exposure time: 24 hours | 0.56 | 3.46 | 71.6
concentration: 200 (µM), S9 metabolic activation: with S9, exposure time: 3-4 hours | 0.38 | 2.93 | 45.2
